The structures appear in SMILES notation. Among all 310,000 compounds or so, about 2,200 (0.71%) showed an effect of 50% or more. The effect is printed as a negative number. This is one part of the list.

For the assay, the target named is human ether-à-go-go-related gene (hERG) potassium channel (human, UniProt Q12809). In words: primary screen, population patch clamp on CHO cells stably expressing hERG.
Sequence of human ether-à-go-go-related gene (hERG) potassium channel (Q12809 whole entry, looked up): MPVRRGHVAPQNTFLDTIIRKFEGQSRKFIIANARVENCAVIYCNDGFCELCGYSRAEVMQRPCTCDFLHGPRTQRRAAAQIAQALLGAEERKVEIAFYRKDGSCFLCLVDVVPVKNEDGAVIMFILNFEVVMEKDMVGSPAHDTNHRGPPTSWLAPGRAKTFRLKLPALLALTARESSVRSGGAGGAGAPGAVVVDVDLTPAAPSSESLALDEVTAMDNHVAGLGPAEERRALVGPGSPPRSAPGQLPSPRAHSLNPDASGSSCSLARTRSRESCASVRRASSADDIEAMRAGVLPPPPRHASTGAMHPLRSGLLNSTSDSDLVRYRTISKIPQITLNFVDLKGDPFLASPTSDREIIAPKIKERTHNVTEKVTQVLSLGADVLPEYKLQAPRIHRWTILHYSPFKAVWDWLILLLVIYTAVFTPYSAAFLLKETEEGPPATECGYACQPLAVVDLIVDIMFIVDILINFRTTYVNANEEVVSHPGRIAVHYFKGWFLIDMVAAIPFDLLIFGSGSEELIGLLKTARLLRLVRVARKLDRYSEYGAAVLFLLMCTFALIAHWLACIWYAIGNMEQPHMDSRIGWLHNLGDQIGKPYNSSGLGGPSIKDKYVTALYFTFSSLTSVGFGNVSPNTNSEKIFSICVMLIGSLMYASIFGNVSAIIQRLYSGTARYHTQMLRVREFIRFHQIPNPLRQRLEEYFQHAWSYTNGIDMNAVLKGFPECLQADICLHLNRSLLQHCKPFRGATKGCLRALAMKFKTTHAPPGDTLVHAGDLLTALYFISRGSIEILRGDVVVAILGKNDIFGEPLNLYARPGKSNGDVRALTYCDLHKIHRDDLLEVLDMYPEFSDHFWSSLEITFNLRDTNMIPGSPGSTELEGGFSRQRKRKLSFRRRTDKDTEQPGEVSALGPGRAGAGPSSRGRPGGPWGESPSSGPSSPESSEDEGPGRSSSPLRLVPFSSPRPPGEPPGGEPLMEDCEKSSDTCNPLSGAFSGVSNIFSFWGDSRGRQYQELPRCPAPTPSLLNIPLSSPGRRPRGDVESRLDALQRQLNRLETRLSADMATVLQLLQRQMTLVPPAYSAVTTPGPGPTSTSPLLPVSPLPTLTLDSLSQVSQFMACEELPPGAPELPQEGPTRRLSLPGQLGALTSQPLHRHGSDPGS
On to `COc1ccccc1N(CC(=O)NCCN1CCOCC1)S(=O)(=O)c1ccc(C)cc1`, for which the “hERG current change (%, negative = inhibition) at 1uM” value was 6.43%.
In the case of `COCC(C)n1c(COc2ccccc2F)nnc1SCC(=O)c1c(N)n(C)c(=O)n(C)c1=O` (centres unmarked), the “hERG current change (%, negative = inhibition) at 1uM” value is on record as 14.1%.
Then `COc1ccc2cc(-c3[nH]ncc3CN3CCCC3c3nonc3C)ccc2c1` (centres unmarked), with 10.5%; and `CCCC(Oc1ccc(Br)cc1)c1nc2c3cc(OC)c(OC)cc3nc(=S)n2[nH]1` (centres unmarked), with 8.35%.
As to `Cc1c(C(=O)N2CCOCC2)oc2ccccc12`, the “hERG current change (%, negative = inhibition) at 1uM” value is 5.84%.
As to `COc1cc(CO)ccc1OCc1nnnn1-c1ccc(C)cc1`, the “hERG current change (%, negative = inhibition) at 1uM” value is -0.124%.
Take `O=c1[nH]c(C2CCCN(S(=O)(=O)c3ccccc3)C2)nc2c1nnn2Cc1ccccc1Br` (centres unmarked): the “hERG current change (%, negative = inhibition) at 1uM” value is recorded as 7.66%.
Regarding `Cc1ccc(NC(=O)Nc2ncccc2C)cc1`, the “hERG current change (%, negative = inhibition) at 1uM” value is 7.31%.
Then `C=CCn1c(CC(=O)OC)csc1=Nc1ccc(C(C)=O)cc1`, with 3.96%; and `CCC(Sc1ncccc1Nc1ccccn1)C(=O)O` (centres unmarked), with 13.6%.
For `COC(=O)c1[nH]c2c(c1C)C(=O)CC(c1ccc(C)cc1)C2` (centres unmarked) the value was 8.22%; for `COCCNC(=S)N1CCC(c2nc(-c3ccc(F)cc3)no2)CC1`, -1.8%.
Then `NC(=O)Nc1cccc2ccccc12`, with 14.1%; and `Cl.Clc1ccc(CNCCCSc2ncccn2)cc1Cl`, with 4.07%; and `COc1cccc(NS(=O)(=O)c2ccc(NC(C)=O)cc2)c1`, with -3.96%.
With `Cc1cc(NS(=O)(=O)c2ccc(NC(=O)COc3ccc(Br)cc3)cc2)nc(C)n1`, the “hERG current change (%, negative = inhibition) at 1uM” value worked out at 18.3%.
Then `Cc1cccc(N(C(=O)CNC(=O)c2cccs2)C(C(=O)NC2CCCC2)c2ccncc2)c1` (centres unmarked), with 8.49%.
Then `Cc1onc(-c2ccccc2)c1C(=O)Nc1ccc(C(=O)N2CCCCC2)cc1`, with 16.6%; and `CC1CCCN(C(=O)Cn2c3ccccc3c3nc4n(c(=O)c32)CCS4)C1` (centres unmarked), with 6.41%; and `CC1CCCCC1NC(=O)CN1C(=O)NC(C)(c2ccc(OC(F)F)cc2)C1=O` (centres unmarked), with -23.2%.
For the compound `O=C(NCCc1cccs1)C(c1ccccc1)c1ccccc1`, the “hERG current change (%, negative = inhibition) at 1uM” value stood at 20.8%.
For `O=C(N/N=C/c1ccncc1)c1ccc(-n2cccc2)cc1` the value was 1.48%; for `Cc1c2cnn(CC(=O)Nc3c(F)c(F)cc(F)c3F)c(=O)c2c(C)n1Cc1ccc(F)cc1`, 4.46%.
With `Cc1cc(C(=O)OCC(=O)N(C)c2ccccc2)ccc1[N+](=O)[O-]`, the “hERG current change (%, negative = inhibition) at 1uM” value is on record as 6.03%.
For `CC(C)Cn1nc(C(=O)Nc2nnc(C3CC3)s2)c2ccccc2c1=O`, the “hERG current change (%, negative = inhibition) at 1uM” value is on record as 7.25%.
In the case of `Cc1ccc(C2(c3ccccc3)NC(=O)N(CC(=O)NC3(C#N)CCCC3)C2=O)cc1C` (centres unmarked), the “hERG current change (%, negative = inhibition) at 1uM” value was -9.03%.
Then `Oc1ccc(/C=N\Nc2nncc(-c3ccccc3)n2)cc1`, with 12.6%.
For `O=C(NCc1ccccc1Cl)c1cnccn1` the value was 11.5%; for `Cc1ccc(Nc2nc(OC(C(F)(F)F)C(F)(F)F)nc(N3CCOCC3)n2)cc1`, 14.6%.
For `Cc1ccc2oc(C(=O)N3CCN(C)C[C@@H]3C(C)C)c(C)c2c1` the value was 9.07%.
`CO/N=C(\CCC(=O)O)c1cccs1`: the “hERG current change (%, negative = inhibition) at 1uM” value is on record as 5.27%.
Turning to `NC(=S)N/N=C1/CCSc2ccc3ccccc3c21`, the “hERG current change (%, negative = inhibition) at 1uM” value came out at 8.16%.
As to `C/C(=N\NC(=O)Nc1ccccc1)c1ccc2ccccc2c1`, the “hERG current change (%, negative = inhibition) at 1uM” value is recorded as 8.13%.
As for `COc1ccc(CCNC(=O)CCS(=O)(=O)c2ccc3c(c2)oc(=O)n3C)cc1OC`, the “hERG current change (%, negative = inhibition) at 1uM” value is 13.1%.
In the case of `C=CCN(C(=O)CNC(=O)c1cccs1)C(C(=O)NC1CCCCC1)c1cccnc1` (centres unmarked), the “hERG current change (%, negative = inhibition) at 1uM” value is listed as 12.5%.
For `COc1ccc([N+](=O)[O-])cc1NC(=O)C(C)N(C)Cc1ccc(Br)cc1` (centres unmarked), the “hERG current change (%, negative = inhibition) at 1uM” value is 8.31%.
Then `COc1cccc(C2NC(=O)NC(C)=C2C(=O)Nc2cc(OC)ccc2OC)c1` (centres unmarked), with 1%; and `CS(=O)(=O)Nc1ccc(C2=NN(C(=O)c3ccco3)C(c3ccco3)C2)cc1` (centres unmarked), with -23.2%.
Consider `Cc1cc(C)n(CCCNC(=O)c2ccc(C)c(S(=O)(=O)N3CCOCC3)c2)n1`, for which the “hERG current change (%, negative = inhibition) at 1uM” value stood at 8.37%.
Then `COc1ccc(-c2nnc(SCc3ccc(C(=O)O)cc3)n2C)cc1OC`, with 6.22%.
For `Cc1nn(Cc2ccccc2)c(C)c1C(=O)OCC(=O)c1cc(C)n(C2CC2)c1C` the value was -10.9%; for `O=C(CSCc1ccccc1Br)N/N=C/c1ccc2c(c1)OCO2`, 5.23%.
For `CC(=O)Oc1cccc(N2C(=O)c3ccc(C(=O)O)cc3C2=O)c1`, the “hERG current change (%, negative = inhibition) at 1uM” value was 10.2%.
Regarding `COc1ccccc1N1CCN(C(=O)C(C)N(c2ccccc2)S(C)(=O)=O)CC1` (centres unmarked), the “hERG current change (%, negative = inhibition) at 1uM” value was 9.88%.
